According to the supplement of paper PMC8728848:
This is one part of the list.

How the values were obtained:
Assay in all cases: glycan array binding signal (z-score within array); higher = stronger binding
Conditions in all cases: glycan notation: IUPAC condensed, linker removed; mutation: R343V
Fuc(a1-2)Gal = target: Fuc(a1-2)Gal
Method in brief: (§1)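 Negative Z-scores can be read as non-binding. The Z-score is calculated within each array and then averaged across arrays of one protein sequence at different concentrations or buffers and across linkers. Arrays, 3228 in all, were curated from the Consortium for Functional Glycomics database and kept only where the protein sequence was available.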

Fuc(a1-2)Gal(b1-3)GalNAc = target: Fuc(a1-2)Gal(b1-3)GalNAc
Method in brief: as §1

[1] = target: Fuc(a1-2)Gal(b1-3)GalNAc(b1-3)Gal
Method in brief: as §1

[2] = target: Fuc(a1-2)Gal(b1-3)GalNAc(b1-3)Gal(a1-4)Gal(b1-4)Glc
Method in brief: as §1

[3] = target: Fuc(a1-2)Gal(b1-3)GalNAc(b1-4)[Neu5Ac(a2-3)]Gal(b1-4)Glc
Method in brief: as §1

Fuc(a1-2)Gal(b1-3)GlcNAc = target: Fuc(a1-2)Gal(b1-3)GlcNAc
Method in brief: as §1

[4] = target: Fuc(a1-2)Gal(b1-3)GlcNAc(b1-3)Gal(b1-4)Glc
Method in brief: as §1

[5] = target: Fuc(a1-2)Gal(b1-3)[Fuc(a1-4)]GlcNAc
Method in brief: as §1

Fuc(a1-2)Gal(b1-4)Glc = target: Fuc(a1-2)Gal(b1-4)Glc
Method in brief: as §1

Fuc(a1-2)Gal(b1-4)Glc6S = target: Fuc(a1-2)Gal(b1-4)Glc6S
Method in brief: as §1

Fuc(a1-2)Gal(b1-4)GlcNAc = target: Fuc(a1-2)Gal(b1-4)GlcNAc
Method in brief: as §1

[6] = target: Fuc(a1-2)Gal(b1-4)GlcNAc(b1-3)Gal(b1-4)GlcNAc
Method in brief: as §1

[7] = target: Fuc(a1-2)Gal(b1-4)GlcNAc(b1-3)Gal(b1-4)GlcNAc(b1-3)Gal(b1-4)GlcNAc
Method in brief: as §1

[8] = target: Fuc(a1-2)Gal(b1-4)GlcNAc6S
Method in brief: as §1

[9] = target: Fuc(a1-2)Gal(b1-4)[Fuc(a1-3)]GlcNAc
Method in brief: as §1

[10] = target: Fuc(a1-2)Gal(b1-4)[Fuc(a1-3)]GlcNAc(b1-3)Gal(b1-4)[Fuc(a1-3)]GlcNAc
Method in brief: as §1

[11] = target: Fuc(a1-2)Gal(b1-4)[Fuc(a1-3)]GlcNAc(b1-3)Gal(b1-4)[Fuc(a1-3)]GlcNAc(b1-3)Gal(b1-4)[Fuc(a1-3)]GlcNAc
Method in brief: as §1

Fuc(a1-2)Gal6S(b1-4)Glc = target: Fuc(a1-2)Gal6S(b1-4)Glc
Method in brief: as §1

[12] = target: Fuc(a1-2)Gal6S(b1-4)Glc6S
Method in brief: as §1

[13] = target: Fuc(a1-2)Gal6S(b1-4)GlcNAc
Method in brief: as §1

Fuc(a1-2)[Gal(a1-3)]Gal = target: Fuc(a1-2)[Gal(a1-3)]Gal
Method in brief: as §1

[14] = target: Fuc(a1-2)[Gal(a1-3)]Gal(b1-3)GlcNAc
Method in brief: as §1

[15] = target: Fuc(a1-2)[Gal(a1-3)]Gal(b1-4)Glc
Method in brief: as §1

[16] = target: Fuc(a1-2)[Gal(a1-3)]Gal(b1-4)GlcNAc
Method in brief: as §1

[17] = target: Fuc(a1-2)[Gal(a1-3)]Gal(b1-4)[Fuc(a1-3)]GlcNAc
Method in brief: as §1

[18] = target: Fuc(a1-2)[Gal(a1-4)]Gal(b1-4)GlcNAc
Method in brief: as §1

[19] = target: Fuc(a1-2)[GalNAc(a1-3)]Gal
Method in brief: as §1

[20] = target: Fuc(a1-2)[GalNAc(a1-3)]Gal(b1-3)GlcNAc
Method in brief: as §1

[21] = target: Fuc(a1-2)[GalNAc(a1-3)]Gal(b1-4)Glc
Method in brief: as §1

[22] = target: Fuc(a1-2)[GalNAc(a1-3)]Gal(b1-4)GlcNAc
Method in brief: as §1

B1: Surfactant Protein D (Human); Neck + Carbohydrate Recognition Domain (NCRD) (Homo sapiens) (protein)
chain: MLLFLLSALVLLTQPLGYLEAEMKTYSHRTMPSACTLVMCSSVESGLPGRDRDGREGPRGEKGDPGLPGAAGQAGMPGQAGPVGPKGDNGSVGEPGPKGDTGPSGPPGPPGVPGPAGREGALGKQGNIGPQGKPGPKGEAGPKGEVGAPGMQGSAGARGLAGPKGERGVPGERGVPGNTGAAGSAGAMGPQGSPGARGPPGLKGDKGIPGDKGAKGESGLPDVASLRQQVEALQGQVQHLQAAFSQYKKVELFPNGQSVGEKIFKTAQFVKPFTEAQLLCTQAGGQLASPRSAAENAALQQLVVAKNEAAFLSMTDSKTEGKFTYPTGESLVYSNWAPGEPNDDGGSEDCVEIFTNGKWNDVACGEKRLVVCEF
For B1, the “glycan array binding signal (z-score)” value (Fuc(a1-2)Gal) was 2.03, the “glycan array binding signal (z-score)” value (Fuc(a1-2)Gal(b1-3)GalNAc) was -0.225 and the “glycan array binding signal (z-score)” value [1] was -0.52. The “glycan array binding signal (z-score)” value [2] was -0.437, the “glycan array binding signal (z-score)” value [3] was -0.399 and the “glycan array binding signal (z-score)” value (Fuc(a1-2)Gal(b1-3)GlcNAc) was -0.59. The “glycan array binding signal (z-score)” value [4] was -0.56, the “glycan array binding signal (z-score)” value [5] was 1.17 and the “glycan array binding signal (z-score)” value (Fuc(a1-2)Gal(b1-4)Glc) was -0.171. For the same binder, the “glycan array binding signal (z-score)” value (Fuc(a1-2)Gal(b1-4)Glc6S) was -0.514, the “glycan array binding signal (z-score)” value (Fuc(a1-2)Gal(b1-4)GlcNAc) was -0.411 and the “glycan array binding signal (z-score)” value [6] was 1.5. The “glycan array binding signal (z-score)” value [7] was 2.05, the “glycan array binding signal (z-score)” value [8] was -0.304 and the “glycan array binding signal (z-score)” value [9] was -0.487. The “glycan array binding signal (z-score)” value [10] was -0.374, the “glycan array binding signal (z-score)” value [11] was 0.787 and the “glycan array binding signal (z-score)” value (Fuc(a1-2)Gal6S(b1-4)Glc) was -0.436. The “glycan array binding signal (z-score)” value [12] was -0.304, the “glycan array binding signal (z-score)” value [13] was -0.456 and the “glycan array binding signal (z-score)” value (Fuc(a1-2)[Gal(a1-3)]Gal) was -0.535. The “glycan array binding signal (z-score)” value [14] was -0.546, the “glycan array binding signal (z-score)” value [15] was -0.517 and the “glycan array binding signal (z-score)” value [16] was -0.508. The “glycan array binding signal (z-score)” value [17] was -0.548, the “glycan array binding signal (z-score)” value [18] was 1.34 and the “glycan array binding signal (z-score)” value [19] was -0.519. For the same binder, the “glycan array binding signal (z-score)” value [20] was -0.559, the “glycan array binding signal (z-score)” value [21] was -0.55 and the “glycan array binding signal (z-score)” value [22] was -0.484.
